Source: paper PMC9911399, “Two distinct binding modes provide the RNA-binding protein RbFox with extraordinary sequence specificity”
Substitutions are numbered along the chain they refer to; changes in the protein carry UniProt numbers. Some of the results follow.

T1: RBFOX1 RRM RbFoxmut (Fox-RRM*) (Homo sapiens, UniProt Q9NWB1 109-208, R118D;E147R;N151S;E152T)
T1 sequence: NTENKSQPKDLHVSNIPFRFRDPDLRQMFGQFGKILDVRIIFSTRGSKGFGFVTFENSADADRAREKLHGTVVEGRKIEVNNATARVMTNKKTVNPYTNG

B1: UGCGAAG (DNA:RNA)
RNA: GGGAGACCGGAAUUCAGAUUGUCCUGCGAAGUUAAAUCCCGUCGUAGCCACCA
DNA 1: CAATCTGAATTCCGGTCTCCC
DNA 2: TGGTGGCTACGACGGGATT
B2: UGACCCG (DNA:RNA)
RNA: B1 RNA with C27A, G28C, A29C, A30C
DNA 1: CAATCTGAATTCCGGTCTCCC
DNA 2: TGGTGGCTACGACGGGATT
B3: UAACUAC (DNA:RNA)
RNA: B1 RNA with G26A, C27A, G28C, A29U, G31C
DNA 1: CAATCTGAATTCCGGTCTCCC
DNA 2: TGGTGGCTACGACGGGATT
B4: CCAAGUC (DNA:RNA)
RNA: GGGAGACCGGAAUUCAGAUUGUCCCCAAGUCUUAAAUCCCGUCGUAGCCACCA
DNA 1: CAATCTGAATTCCGGTCTCCC
DNA 2: TGGTGGCTACGACGGGATT
B5: UACUAGA (DNA:RNA)
RNA: B1 RNA with G26A, G28U, A30G, G31A
DNA 1: CAATCTGAATTCCGGTCTCCC
DNA 2: TGGTGGCTACGACGGGATT
B6: AUCAAGG (DNA:RNA)
RNA: B1 RNA with U25A, G26U, G28A, A30G
DNA 1: CAATCTGAATTCCGGTCTCCC
DNA 2: TGGTGGCTACGACGGGATT
B7: CUAUGCG (DNA:RNA)
RNA: B4 RNA with C26U, A28U, U30C, C31G
DNA 1: CAATCTGAATTCCGGTCTCCC
DNA 2: TGGTGGCTACGACGGGATT
B8: CAGGUGA (DNA:RNA)
RNA: B4 RNA with C26A, A27G, A28G, G29U, U30G, C31A
DNA 1: CAATCTGAATTCCGGTCTCCC
DNA 2: TGGTGGCTACGACGGGATT
B9: UGGGGCC (DNA:RNA)
RNA: B1 RNA with C27G, A29G, A30C, G31C
DNA 1: CAATCTGAATTCCGGTCTCCC
DNA 2: TGGTGGCTACGACGGGATT
B10: ACCCCGU (DNA:RNA)
RNA: B4 RNA with C25A, A27C, A28C, G29C, U30G, C31U
DNA 1: CAATCTGAATTCCGGTCTCCC
DNA 2: TGGTGGCTACGACGGGATT
B11: GAGGAGC (DNA:RNA)
RNA: B1 RNA with U25G, G26A, C27G, A30G, G31C
DNA 1: CAATCTGAATTCCGGTCTCCC
DNA 2: TGGTGGCTACGACGGGATT
B12: CCCCCAC (DNA:RNA)
RNA: B4 RNA with A27C, A28C, G29C, U30A
DNA 1: CAATCTGAATTCCGGTCTCCC
DNA 2: TGGTGGCTACGACGGGATT
B13: GGCUGCC (DNA:RNA)
RNA: B4 RNA with C25G, C26G, A27C, A28U, U30C
DNA 1: CAATCTGAATTCCGGTCTCCC
DNA 2: TGGTGGCTACGACGGGATT
B14: UCUUGUU (DNA:RNA)
RNA: B4 RNA with C25U, A27U, A28U, C31U
DNA 1: CAATCTGAATTCCGGTCTCCC
DNA 2: TGGTGGCTACGACGGGATT
B15: UUUCGUU (DNA:RNA)
RNA: B4 RNA with C25U, C26U, A27U, A28C, C31U
DNA 1: CAATCTGAATTCCGGTCTCCC
DNA 2: TGGTGGCTACGACGGGATT
B16: GGCCGUC (DNA:RNA)
RNA: B4 RNA with C25G, C26G, A27C, A28C
DNA 1: CAATCTGAATTCCGGTCTCCC
DNA 2: TGGTGGCTACGACGGGATT
B17: GCAUUGA (DNA:RNA)
RNA: B4 RNA with C25G, A28U, G29U, U30G, C31A
DNA 1: CAATCTGAATTCCGGTCTCCC
DNA 2: TGGTGGCTACGACGGGATT
B18: GAUUCAA (DNA:RNA)
RNA: B1 RNA with U25G, G26A, C27U, G28U, A29C, G31A
DNA 1: CAATCTGAATTCCGGTCTCCC
DNA 2: TGGTGGCTACGACGGGATT
B19: GUCCGAG (DNA:RNA)
RNA: B1 RNA with U25G, G26U, G28C, A29G
DNA 1: CAATCTGAATTCCGGTCTCCC
DNA 2: TGGTGGCTACGACGGGATT
B20: GCCGAUU (DNA:RNA)
RNA: B1 RNA with U25G, G26C, A30U, G31U
DNA 1: CAATCTGAATTCCGGTCTCCC
DNA 2: TGGTGGCTACGACGGGATT
B21: UAACAGU (DNA:RNA)
RNA: B1 RNA with G26A, C27A, G28C, A30G, G31U
DNA 1: CAATCTGAATTCCGGTCTCCC
DNA 2: TGGTGGCTACGACGGGATT
B22: ACGGAGU (DNA:RNA)
RNA: B1 RNA with U25A, G26C, C27G, A30G, G31U
DNA 1: CAATCTGAATTCCGGTCTCCC
DNA 2: TGGTGGCTACGACGGGATT
B23: GUCACUA (DNA:RNA)
RNA: B4 RNA with C25G, C26U, A27C, G29C, C31A
DNA 1: CAATCTGAATTCCGGTCTCCC
DNA 2: TGGTGGCTACGACGGGATT
B24: UGGUCGC (DNA:RNA)
RNA: B1 RNA with C27G, G28U, A29C, A30G, G31C
DNA 1: CAATCTGAATTCCGGTCTCCC
DNA 2: TGGTGGCTACGACGGGATT
B25: AUUAAGG (DNA:RNA)
RNA: B1 RNA with U25A, G26U, C27U, G28A, A30G
DNA 1: CAATCTGAATTCCGGTCTCCC
DNA 2: TGGTGGCTACGACGGGATT
B26: CGGGAAU (DNA:RNA)
RNA: B1 RNA with U25C, C27G, G31U
DNA 1: CAATCTGAATTCCGGTCTCCC
DNA 2: TGGTGGCTACGACGGGATT
B27: UCCCCCU (DNA:RNA)
RNA: B1 RNA with G26C, G28C, A29C, A30C, G31U
DNA 1: CAATCTGAATTCCGGTCTCCC
DNA 2: TGGTGGCTACGACGGGATT
B28: GGGGGAU (DNA:RNA)
RNA: B1 RNA with U25G, C27G, A29G, G31U
DNA 1: CAATCTGAATTCCGGTCTCCC
DNA 2: TGGTGGCTACGACGGGATT
B29: UAAGUCG (DNA:RNA)
RNA: B1 RNA with G26A, C27A, A29U, A30C
DNA 1: CAATCTGAATTCCGGTCTCCC
DNA 2: TGGTGGCTACGACGGGATT
B30: GGCUCGG (DNA:RNA)
RNA: B1 RNA with U25G, G28U, A29C, A30G
DNA 1: CAATCTGAATTCCGGTCTCCC
DNA 2: TGGTGGCTACGACGGGATT
B31: CAGUUCA (DNA:RNA)
RNA: B4 RNA with C26A, A27G, A28U, G29U, U30C, C31A
DNA 1: CAATCTGAATTCCGGTCTCCC
DNA 2: TGGTGGCTACGACGGGATT

These binders were tested against T1, RBFOX1 RRM RbFoxmut (Fox-RRM*) (assay: EMSA; HiTS-Eq, 1 nM pool, 10 min; buffer printed only for the single-RNA assays: 10 mM Tris pH 7.5, 150 mM NaCl, 3.4 mM EDTA, 0.001% NP-40, 30 C). Conditions: tags: His6 N-terminal (pET28a); label: 5' 32P.
Method in brief: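 Purified wild-type or mutant RbFox RRM at increasing concentrations was equilibrated with 1 nM of 5′-radiolabelled RNA carrying 7 randomized nucleotides for 10 min in 50 µL. Unbound RNA was separated by 8% native PAGE and sequenced. Relative association constants came from read-count changes of each RNA species compared with the control reaction, normalised to the cognate motif.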

Binder | binding signal
B1 | 0.0938 KA relative to UGCAUGU
B2 | 0.0559 KA relative to UGCAUGU
B3 | 0.0617 KA relative to UGCAUGU
B4 | 0.0772 KA relative to UGCAUGU
B5 | 0.0942 KA relative to UGCAUGU
B6 | 0.0887 KA relative to UGCAUGU
B7 | 0.116 KA relative to UGCAUGU
B8 | 0.114 KA relative to UGCAUGU
B9 | 0.349 KA relative to UGCAUGU
B10 | 0.121 KA relative to UGCAUGU
B11 | 0.095 KA relative to UGCAUGU
B12 | 0.0595 KA relative to UGCAUGU
B13 | 0.179 KA relative to UGCAUGU
B14 | 0.131 KA relative to UGCAUGU
B15 | 0.106 KA relative to UGCAUGU
B16 | 0.123 KA relative to UGCAUGU

Binder | binding signal
B17 | 0.178 KA relative to UGCAUGU
B18 | 0.0804 KA relative to UGCAUGU
B19 | 0.129 KA relative to UGCAUGU
B20 | 0.07 KA relative to UGCAUGU
B21 | 0.0525 KA relative to UGCAUGU
B22 | 0.15 KA relative to UGCAUGU
B23 | 0.0913 KA relative to UGCAUGU
B24 | 0.114 KA relative to UGCAUGU
B25 | 0.0814 KA relative to UGCAUGU
B26 | 0.111 KA relative to UGCAUGU
B27 | 0.0643 KA relative to UGCAUGU
B28 | 0.0726 KA relative to UGCAUGU
B29 | 0.102 KA relative to UGCAUGU
B30 | 0.12 KA relative to UGCAUGU
B31 | 0.106 KA relative to UGCAUGU
